{"source": "PubChem BioAssay AID1963576", "about": "(National Center for Advancing Translational Sciences (NCATS), 2024)", "note": "Among all 46,000 compounds or so, about 60 (0.1%) were called active. The shares of active, inactive and inconclusive entries below differ from those in the screen. Calls come from the whole dose curve; as a rule, active = well fitted inhibition curve with a large enough effect; inconclusive = small, poorly fitted or top-dose-only effect; inactive = no such curve, though single readings can be large or run the other way. Potencies of inconclusive entries are left out as doubtful fits. Potency is the fitted concentration of half-maximal effect; tags give direction and shape of the fitted curve.", "data": [{"experiment": "Primary qHTS assay for Inhibitors of ovarian cancer metastasis using an organotypic tumor microenvironment (TME) model; note: nearly all actives have a fitted effect of over 65% in size;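 for Potency: count of GFP cancer cells still attached after washing and fixation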;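 for activity change, negative = inhibition: plate controls were DMSO wells for no effect and tomatine positive control wells for full effect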.", "conditions": "SKOV3ip1-GFP adhesion/invasion on 3D omental model, fluorescence; activity change, negative = inhibition: at 45.8 µM (top of the series); series mostly up to 45.8 µM", "how_it_was_run": "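Adhesion/invasion was scored as fixed GFP-labeled SKOV3ip1 cell counts (488/509 nm), normalized to DMSO and tomatine controls. Cancer cells in serum-free medium, with four compound doses (0.36-46 umol/L), sat 2 hr at RT then 16 hr at 37 C on a 48 hr fibroblast/mesothelial/ECM culture.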", "values": [{"smiles": "O=C(CSc1nc2c([nH]c3ccccc32)c(=O)n1-c1ccccc1)c1ccccc1", "outcome": "inactive"}, {"smiles": "CCc1ccc(-n2nc(C)c3c(C(=O)NCCc4ccc(OC)c(OC)c4)cc(C)nc32)cc1", "Potency": "inconclusive [inhibitor, single point]"}, {"smiles": "Cc1nc2ccccn2c(=O)c1NC(=O)c1ccccc1Cl", "Potency": "inconclusive [inhibitor, single point]"}, {"smiles": "COc1ccc(NC(=O)CCS(=O)(=O)c2nc(-c3cccs3)cc(C(F)(F)F)n2)cc1OC", "Potency": "inconclusive [inhibitor, partial curve, poor fit]"}, {"smiles": "COc1ccc(-n2ccnc2SCC(=O)Nc2nnc(C)s2)cc1", "Potency": "inconclusive [inhibitor, full curve, poor fit]"}, {"smiles": "Cc1cc(C)cc(NC(=O)Cn2c(=O)n(-c3cc(C)cc(C)c3)c(=O)c3oc4ccccc4c32)c1", "Potency": "inconclusive [inhibitor, full curve, poor fit]"}, {"smiles": "CC(C)C[C@@H](C(=O)N[C@H](C(=O)OC1CCCC1)c1ccccc1)[C@H](O)C(=O)NO", "activity change, negative = inhibition": "inactive: 8.25%"}, {"smiles": "COc1ccc(C)cc1Nc1nc(N)c2cc(OC)c(OC)cc2n1", "Potency": "inconclusive [inhibitor, partial curve, poor fit]"}, {"smiles": "Cc1nnc(N2CCCC(C(=O)NCCc3ccccc3)C2)c2nn(-c3ccccc3)c(C)c12", "note": "(centres undefined)", "Potency": "inconclusive [inhibitor, single point]"}, {"smiles": "COCCCNC(=O)c1ccc2nc(CCc3ccccc3)oc2c1", "activity change, negative = inhibition": "inactive: 0.153%"}, {"smiles": "O=C(NCc1ccc(Cl)cc1Cl)c1cccc(N2CCCS2(=O)=O)c1", "activity change, negative = inhibition": "inactive: -15.9%"}, {"smiles": "Cc1ccc(N2C(=O)N(Cc3cccc(Cl)c3)c3ccccc3S2(=O)=O)cc1", "activity change, negative = inhibition": "inactive: 19.3%"}, {"smiles": "COc1ccc2c(Sc3ccc(Cl)cc3)c(C(=O)N3CCCCC3)[nH]c2c1", "Potency": "inconclusive [inhibitor, single point]"}, {"smiles": "Cc1ccc(-n2ncc(C(=O)NCCCN3CCc4ccccc4C3)c2C2CCN(C(=O)OC(C)(C)C)CC2)cc1C", "Potency": "inconclusive [inhibitor, single point]"}, {"smiles": "COc1ccccc1-c1cccc(-c2c(O)c3cc(C#N)c(Cl)cc3[nH]c2=O)c1", "activity change, negative = inhibition": "inactive: 5.83% [at 92.2 µM]"}, {"smiles": "Cc1nc2c(-c3ccccc3)c(C)[nH]n2c(=O)c1Cc1ccc(C(C)C)cc1", "Potency": "inconclusive [inhibitor, partial curve]"}, {"smiles": "CCOc1ccccc1NS(=O)(=O)c1ccc2oc(=O)c3ncn(C)c3c2c1", "Potency": "inconclusive [inhibitor, partial curve, poor fit]"}, {"smiles": "Cc1cccc(OCC(=O)Nc2ccc3c(c2)N(C)C(=O)c2ccccc2S3)c1", "Potency": "inconclusive [inhibitor, full curve, poor fit]"}, {"smiles": "CNS(=O)(=O)c1cn(CC(=O)N2CCN(c3ccc(Cl)cc3)CC2)cc1S(=O)(=O)NC", "Potency": "inconclusive [inhibitor, single point]"}, {"smiles": "COc1ccc(-c2cn3nc(SCC(=O)Nc4ccccc4F)ccc3n2)cc1", "Potency": "inconclusive [inhibitor, single point]"}, {"smiles": "Cc1cc(C)cc(N(CC(=O)Nc2ccc(C)cc2Cl)S(=O)(=O)c2c(C)[nH]c(=O)[nH]c2=O)c1", "activity change, negative = inhibition": "inactive: -2.21%"}, {"smiles": "O=C(c1ccc(F)cc1)N1CCN(CCc2ccncc2)CC1", "activity change, negative = inhibition": "inactive: -15.4%"}, {"smiles": "Cc1c(Cl)cccc1-n1nnc(-c2nc(-c3ccc4c(c3)OCO4)no2)c1C", "Potency": "inconclusive [inhibitor, full curve, poor fit]"}, {"smiles": "CCC(CC)C(=O)N1CCc2cc(OC)c(OC)cc2C1COc1ccc(F)cc1", "note": "(centres undefined)", "Potency": "inconclusive [inhibitor, single point]"}, {"smiles": "CCCCCNC(=O)C1CCC(Cn2c(=O)c3sccc3n(CC)c2=O)CC1", "note": "(centres undefined)", "Potency": "inconclusive [inhibitor, partial curve, poor fit]"}, {"smiles": "CCc1ccccc1NC(=O)CSc1ncc2c(n1)-c1ccccc1N(C)S2(=O)=O", "activity change, negative = inhibition": "inactive: 13.1%"}, {"smiles": "Cc1cccc(CSc2nc3ccncc3n2CC(=O)N(C)C2CCCCC2)c1", "Potency": "inconclusive [inhibitor, single point]"}, {"smiles": "CCC1CCCCN1CCCNC(=O)c1ccc2c(c1)N(Cc1cccc(Cl)c1)C(=O)c1ccccc1S2(=O)=O", "note": "(centres undefined)", "Potency": "inconclusive [inhibitor, partial curve, poor fit]"}, {"smiles": "COc1ccccc1CN1CCC(CNC(=O)c2cnn(-c3cccc(Cl)c3)c2C2CCN(C(=O)OC(C)(C)C)CC2)CC1", "Potency": "inconclusive [inhibitor, single point]"}, {"smiles": "O=C(NCCO)c1ccc(-c2nnc(Nc3ccc(OC(F)(F)Cl)cc3)c3ccccc23)cc1", "outcome": "inactive"}, {"smiles": "Cc1ccc(C)c(N2CCN(C(=O)Cn3cnc4nc5c(cc4c3=O)CCCC5)CC2)c1", "Potency": "inconclusive [inhibitor, single point]"}, {"smiles": "Cc1ccccc1C(=O)Nc1ccc(C(=O)N2CCCC(O)c3cc(Cl)ccc32)c(C)c1", "note": "(centres undefined)", "activity change, negative = inhibition": "inactive: 5.5%"}, {"smiles": "O=C(CSc1nc2ccsc2c(=O)n1-c1ccc(Br)cc1)NCc1ccc(Cl)cc1", "activity change, negative = inhibition": "inactive: -1.19%"}, {"smiles": "COc1cc(NS(=O)(=O)c2cc3[nH]c(=O)[nH]c3cc2C)cc(OC)c1OC", "Potency": "inconclusive [inhibitor, partial curve, poor fit]"}, {"smiles": "Cc1ccc2onc(CNC(=O)N3CCN(c4cc(Cl)ccc4C)CC3)c2c1", "Potency": "inconclusive [inhibitor, single point]"}, {"smiles": "Cc1ccc2c(c1)c(=O)c1ccccc1n2CCCC(=O)Nc1ccc(C)c(C)c1", "Potency": "inconclusive [inhibitor, single point]"}, {"smiles": "COc1cc(C(=O)NC2CCN(C)CC2)ccc1Nc1ncc2c(n1)N(C1CCCC1)CCC(=O)N2C(C)C", "Potency": "inconclusive [inhibitor, full curve, poor fit]"}, {"smiles": "O=C(COc1ccccc1Cl)Nc1nc(-c2ccc(F)cc2)ns1", "Potency": "inconclusive [inhibitor, single point]"}, {"smiles": "CCN(CC)S(=O)(=O)c1ccc2c(c1)N(CC(=O)NCCCN1CCN(c3cc(C)ccc3C)CC1)C(=O)CO2", "Potency": "inconclusive [inhibitor, partial curve, poor fit]"}, {"smiles": "COc1ccc(-c2nc3ccc(NS(=O)(=O)c4ccc(Cl)cc4)cc3o2)cc1", "activity change, negative = inhibition": "inactive: 0.319%"}, {"smiles": "COc1ccc(NC(=O)c2c(NC(=O)c3ccc(Br)cc3)sc3c2CCCC3)cc1", "Potency": "inconclusive [inhibitor, single point]"}, {"smiles": "COc1ccc(CNCCC(c2ccccc2)c2ccc3c(c2)OCO3)cc1", "note": "(centres undefined)", "Potency": "inconclusive [inhibitor, partial curve, poor fit]"}, {"smiles": "COc1ccc(NC(=O)Cn2cnc3ccc(S(=O)(=O)N4CCC(C)CC4)cc3c2=O)cc1OC", "Potency": "inconclusive [inhibitor, single point]"}, {"smiles": "Cc1c2cnn(CC(=O)NCCc3ccccc3)c(=O)c2c(C)n1Cc1ccccc1", "Potency": "inconclusive [inhibitor, single point]"}, {"smiles": "Cc1cc(Nc2cccc(Cl)c2)nc2ccc(NC(=O)Cc3cccc(C(F)(F)F)c3)cc12", "Potency": "inconclusive [inhibitor, single point]"}, {"smiles": "CC(C)(C)OC(=O)N1CCC(c2c(C(=O)NCCN3CCC(Cc4ccccc4)CC3)cnn2-c2ccc(F)cc2)CC1", "Potency": "inconclusive [inhibitor, partial curve, poor fit]"}, {"smiles": "COc1cc2c(=O)n(CCc3ccccc3)c(=O)n(CC(=O)Nc3ccccc3)c2cc1OC", "Potency": "inconclusive [inhibitor, single point]"}, {"smiles": "CCOc1ccccc1NC(=O)Cn1c(=O)n(-c2cccc(C)c2)c(=O)c2c1c1cc(OC)ccc1n2C", "activity change, negative = inhibition": "inactive: 6.79%"}, {"smiles": "Cc1cccn2c(=O)c(/C=C(\\C#N)c3nc4ccccc4[nH]3)c(Oc3ccc(C(C)(C)C)cc3)nc12", "Potency": "inconclusive [inhibitor, full curve, poor fit]"}, {"smiles": "Cc1ccc(C)c(N2CCN(CCCNC(=O)c3cnn(-c4ccccc4Cl)c3C3CCN(C(=O)OC(C)(C)C)CC3)CC2)c1", "Potency": "inconclusive [inhibitor, partial curve, poor fit]"}, {"smiles": "CCc1cccc(NC(=O)CSC2=Nc3ccccc3N=C(c3ccc(F)cc3)C2)c1", "Potency": "inconclusive [inhibitor, single point]"}, {"smiles": "O=C(NCCc1ccccc1Cl)c1ccc(Cn2c(=O)c3cccn3c3cccnc32)cc1", "Potency": "inconclusive [inhibitor, single point]"}, {"smiles": "Cc1ccccc1N1CC(c2nc3ccccc3n2CCC2CCCCC2)CC1=O", "note": "(centres undefined)", "Potency": "inconclusive [inhibitor, single point]"}, {"smiles": "Cc1ccc(C(C)C)c(OCC(=O)NCC2(N(C)C)CCCCC2)c1", "Potency": "inconclusive [inhibitor, single point]"}, {"smiles": "COc1cc(-c2cc(OC)c3c(C)oc(C)c3c(=O)c2)ccc1OC(=O)c1ccccc1Cl", "Potency": "inconclusive [inhibitor, partial curve]"}, {"smiles": "Cc1ccc2c(Sc3ccc(Cl)cc3)c(C(=O)N3CCC(C)CC3)[nH]c2c1", "Potency": "inconclusive [inhibitor, single point]"}, {"smiles": "COc1ccc(OC)c(NC(=O)CSc2c3c(nc4ccccc24)CCCC3)c1", "Potency": "inconclusive [inhibitor, partial curve, poor fit]"}, {"smiles": "Cc1cc(C)c2c(CC(=O)N(Cc3ccc(N(C)C)cc3)Cc3ccco3)coc2c1", "Potency": "inconclusive [inhibitor, single point]"}, {"smiles": "Cn1nnnc1SCCCNCc1cccc(OCc2ccc(Cl)cc2)c1", "Potency": "inconclusive [inhibitor, single point]"}]}]}
